{"source": "PubChem BioAssay AID1508623", "about": "(National Center for Advancing Translational Sciences (NCATS), 2021)", "note": "About 450 (0.94%) of roughly 48,000 compounds were called active. Inconclusive results (about 19%) are left out. Calls come from the whole dose curve; as a rule, active = well fitted inhibition curve with a large enough effect; inconclusive = small, poorly fitted or top-dose-only effect; inactive = no such curve, though single readings can be large or run the other way. The list shows a part of the results."}
{"experiment": "Primary qHTS for Identification of Small Molecule Inhibitors of Huntingtin Promoter Activity; note: nearly all actives have a fitted effect of over 50% in size", "details": "HEK293 HTT promoter firefly luciferase reporter (activity 0% = vehicle and -100% = no light), 24 h; series mostly up to 57.5 µM; activity change, negative = inhibition: at the top concentration", "source_text": "Assay Provider: Russell L. Margolis M.D.\nDepartment Neurology, Johns Hopkins University School of Medicine, Baltimore, MD\nHuntington's Disease (HD) is a neurodegenerative disorder caused by a CAG repeat expansion in exon 1 of huntingtin (HTT). While there are currently no disease-modifying treatments for HD, recent efforts have focused on development of nucleotide-based therapeutics to lower HTT expression. As an alternative to siRNA or oligonucleotide methods, we hypothesized that suppression of HTT expression might be accomplished by small molecules that either (1) directly decrease HTT expression by suppressing HTT promoter activity or (2) indirectly decrease HTT expression by increasing the promoter activity of HTT-AS, the gene antisense to HTT that appears to inhibit expression of HTT.\nWe developed and employed a high throughput screen for modifiers of HTT and HTT-AS promoter activity using luminescent reporter HEK293 cells; of the 52,041 compounds tested, we identified 898 replicable hits. We used a rigorous stepwise approach to assess compound toxicity and the capacity of the compounds to specifically lower huntingtin protein in 5 different cell lines, including HEK293 cells, HD lymphoblastoid cells, mouse primary neurons, HD iPSCs differentiated into cortical-like neurons, and HD hESCs. We found no compounds which were able to lower huntingtin without lowering cell viability in all assays, though the potential efficacy of a few compounds at non-toxic doses could not be excluded.\nSEQUENCE No. (1, 2, 3, etc.); […] (e.g., Cells, Incubation, Reagent, etc.); VALUE and DESCRIPTION.\n1; Reagent; 4 uL; 2,500 Hek293 luciferase reporter cells per wells\n3; Compound; 23 nL; Control inhibitor / compound library\n5; Reagent; 2.5 uL; Firefly Luc reagent; Dual-Glo Luciferase Reporter Assay System (Promega)\n6; Time; 10 min; room temperature incubation\n7; Detection; Luminescence; FLuc\nNOTES (numbers refer to sequence above)\n1; High-throughput screening, measuring luminescence from a Hek293 luciferase reporter, was performed in 1,536 well white-walled tissue-culture treated plates. 2,500 cells were plated in 4 µL of Opti-MEM per well using a Multidrop Combi Reagent Dispenser (ThermoFisher).\n2; Assay plates were cultured for 24 hours.\n3; Control inhibitor (PTC124; final concentration of 50 uM) and compound library (at final concentrations of 460 nM - 57.5 uM) were added to the assay plate using the Kalypsis Pintool Robotic System equipped with 1536 pinheads.\n4; Cells were then incubated for 24 hours at 37 degrees C prior to luminescence measurements.\n5; In all cases, luminescence was measured using the Dual-Glo Luciferase Reporter Assay System (Promega) following the manufacturer's instructions.\n6; Room temperature incubation.\n7; Luminescence signal was obtained using the PerkinElmer ViewLux plate reader. Results were normalized to vehicle control (0% activity) and zero RLU (-100% activity)."}
{"smiles": "CC(C)c1ccc(S(=O)(=O)Nc2ccc(O)c(Sc3nc4ccccc4s3)c2)cc1", "activity change, negative = inhibition": "inactive: -26.3%"}
{"smiles": "CSc1cccc(NC(=O)C2CCN(S(=O)(=O)c3ccc4[nH]c(=O)ccc4c3)CC2)c1", "activity change, negative = inhibition": "inactive: -9.27%"}
{"smiles": "CCOC(=O)C1(C)C=C(Nc2ccc(C)cc2)C(=O)N1c1ccccc1", "note": "(stereo not drawn)", "activity change, negative = inhibition": "inactive: -4.4%"}
{"smiles": "CCN(CC)CCN(C(=O)c1ccc(C(=O)OC)cc1)c1nc2ccc(Cl)cc2s1", "activity change, negative = inhibition": "inactive: -23.4%"}
{"smiles": "CCOc1ccccc1NC(=O)c1ccc2c(c1)CCCN2S(C)(=O)=O", "activity change, negative = inhibition": "inactive: 1.14%"}
{"smiles": "COCCNc1cc(N2CCN(C3CCCCC3)CC2)c2noc3c2c1C(=O)c1ccccc1-3", "activity change, negative = inhibition": "inactive: -1.25%"}
{"smiles": "O=C(C1COc2ccccc2O1)N(Cc1cccnc1)c1nc2c(F)cc(F)cc2s1", "note": "(stereo not drawn)", "activity change, negative = inhibition": "inactive: -3.11%"}
{"smiles": "O=C(Nc1ccc2nn(-c3ccc(F)cc3)nc2c1)c1cccc2c(Cl)cccc12", "activity change, negative = inhibition": "inactive: -17.2%"}
{"smiles": "Cc1ccc(Cl)cc1N1CCN(C(=O)c2c(C)oc3ncnc(N4CCOCC4)c23)CC1", "activity change, negative = inhibition": "inactive: -12.8%"}
{"smiles": "COC(=O)c1cccc(Nc2c(-c3cc(Br)ccc3O)nc3nc[nH]n23)c1", "activity change, negative = inhibition": "inactive: -7.14%"}
{"smiles": "Cc1cc(C)cc(OCC(=O)Nc2ccc(-c3nc4ncccc4o3)cc2C)c1", "activity change, negative = inhibition": "inactive: -0.323%"}
{"smiles": "CCOc1ccccc1NC(=O)c1c(NCc2ccc(OC)c(OC)c2OC)sc2c1CCC(C)C2", "note": "(stereo not drawn)", "activity change, negative = inhibition": "inactive: -15.5%"}
{"smiles": "CCc1nnc(SCc2nc(-c3ccccc3F)oc2C)c2cc3sccc3n12", "activity change, negative = inhibition": "inactive: -1.72%"}
{"smiles": "Cc1cccc(-c2noc(-c3ccc(NC4CCCC4)c([N+](=O)[O-])c3)n2)c1", "activity change, negative = inhibition": "inactive: 10.3%"}
{"smiles": "Cc1ccc(OCC(=O)Nc2cccc(C(=O)OCc3cc(=O)n4cc(C)sc4n3)c2)cc1", "activity change, negative = inhibition": "inactive: -19.5%"}
{"smiles": "O=C(CC1N=C2c3ccccc3N=C(SCc3cccc(Cl)c3)N2C1=O)NC1CCCCC1", "note": "(stereo not drawn)", "activity change, negative = inhibition": "inactive: -11.4%"}
{"smiles": "COc1cc(OC)c(NC(=O)c2nc(-c3ccncc3)no2)cc1Cl", "activity change, negative = inhibition": "inactive: 22.7%"}
{"smiles": "COc1ccc(NC(=O)CSc2nnc(-c3nnn(-c4ccc(F)cc4)c3C)o2)cc1", "activity change, negative = inhibition": "inactive: 11.3%"}
{"smiles": "CCCCCNC(=O)C1CCC(Cn2c(=O)c3sccc3n(CC(=O)N3CCCC3)c2=O)CC1", "note": "(stereo not drawn)", "activity change, negative = inhibition": "inactive: 13.7%"}
{"smiles": "Cn1c(=NC(=O)c2ccc(F)cc2)sc2cc(Br)ccc21", "activity change, negative = inhibition": "inactive: 61.5%"}
{"smiles": "CCOCN(C(=O)Cn1c(C)nc2ccccc21)c1c(C)cccc1CC", "activity change, negative = inhibition": "inactive: -7.96%"}
{"smiles": "Cc1ccc(Cl)cc1-n1c(=O)cc(N2CCN(c3ccccc3)CC2)[nH]c1=O", "activity change, negative = inhibition": "inactive: -14.5%"}
{"smiles": "Cc1cc2n(n1)CCCN2C(=O)Nc1ccccc1F", "activity change, negative = inhibition": "inactive: 4.64%"}
{"smiles": "CCc1ccccc1NC(=O)CC(C)n1nc(C)cc1C", "note": "(stereo not drawn)", "activity change, negative = inhibition": "inactive: 2.08%"}
{"smiles": "CCCCCC[C@@H](CCC)C(=O)O", "activity change, negative = inhibition": "inactive: -6.51%"}
{"smiles": "Cc1ccc(N2C(=O)c3n[nH]c(C)c3C2c2ccc(C(C)C)cc2)cc1", "note": "(stereo not drawn)", "activity change, negative = inhibition": "inactive: 4.74%"}
{"smiles": "COc1cccc(C(=O)Nc2ccccc2-c2nc(-c3ccc(C)cc3)no2)c1", "activity change, negative = inhibition": "inactive: 31.6%"}
{"smiles": "CCOC(=O)c1c(S(=O)(=O)N2CCN(c3ccccc3OC)CC2)c(C)n(C)c1C", "activity change, negative = inhibition": "inactive: -18.9% [at 11.5 µM]"}
{"smiles": "CC(=O)c1cccc(NC(=O)c2sc3nc4c(cc3c2N)CCCC4)c1", "activity change, negative = inhibition": "inactive: 15.9%"}
{"smiles": "COc1cc(OC)c(NC(=O)NCc2ccc3c(c2)CCN3C(C)=O)cc1Cl", "activity change, negative = inhibition": "inactive: -37.3%"}
{"smiles": "COc1cc2c(cc1OC)C(=O)C(CC1CCN(Cc3ccccc3)CC1)C2", "note": "(stereo not drawn)", "activity change, negative = inhibition": "inactive: -0.211%"}
{"smiles": "O=c1c2cc3c(cc2n(Cc2cccc(F)c2)c(=O)n1Cc1nc(-c2ccccc2)no1)OCO3", "activity change, negative = inhibition": "inactive: -10.3%"}
{"smiles": "CCCCC(CC)CN1CN(CC(CC)CCCC)CC(C)(N)C1", "note": "(stereo not drawn)", "activity change, negative = inhibition": "inactive: -0.716%"}
{"smiles": "CCOc1ccc(NC(=O)C2CCCN(c3nnc(-n4c(C)ccc4C)s3)C2)cc1", "note": "(stereo not drawn)", "activity change, negative = inhibition": "inactive: -13.1%"}
{"smiles": "CCc1ccc(NCc2cc3ccc(OC)cc3n(CC(=O)Nc3cccc(Cl)c3C)c2=O)cc1", "activity change, negative = inhibition": "inactive: -10.6%"}
{"smiles": "Cc1cccn2c(=O)c(C(=O)NCCc3ccc(Cl)cc3)cnc12", "activity change, negative = inhibition": "inactive: 41.5%"}
{"smiles": "CC(=O)c1ccc(NC(=O)C2CCC(CNS(=O)(=O)c3cccc4nsnc34)CC2)cc1", "note": "(stereo not drawn)", "activity change, negative = inhibition": "inactive: -0.0802% [at 11.5 µM]"}
{"smiles": "CC(C)(C)OC(=O)N1CCC(c2c(C(=O)N3CCN(C(=O)c4ccco4)CC3)cnn2-c2ccc(Cl)cc2)CC1", "activity change, negative = inhibition": "inactive: 4.79%"}
{"smiles": "CCCNS(=O)(=O)c1cc(-c2nnc3c4ccccc4c(C)nn23)ccc1OC", "activity change, negative = inhibition": "inactive: 7.26%"}
{"smiles": "Cc1ccc(C(=O)NCc2nnnn2-c2ccc(C)c(C)c2)cc1", "activity change, negative = inhibition": "inactive: -10.6%"}
{"smiles": "CCCCCCn1c(=O)c2c(ncn2C)n(C)c1=O", "activity change, negative = inhibition": "inactive: 8.7%"}
{"smiles": "COc1ccccc1NC(=O)c1oc2ccccc2c1NC(=O)c1ccccc1C(F)(F)F", "activity change, negative = inhibition": "inactive: 5.41%"}
{"smiles": "CCOc1ccccc1NC(=O)C(C)Sc1nc(-c2ccccc2)c(C#N)c(=O)[nH]1", "note": "(stereo not drawn)", "activity change, negative = inhibition": "inactive: -19.6%"}
{"smiles": "CCc1cccc(NC(=O)c2cnc(SC)nc2-c2ccccc2)c1", "activity change, negative = inhibition": "inactive: -18.8%"}
{"smiles": "Cc1nc2sc(C(=O)Nc3ccc(F)cc3)c(N)c2c(-c2ccc(Br)cc2)c1C(=O)Nc1ccc(Cl)cc1", "activity change, negative = inhibition": "inactive: -10.6%"}
{"smiles": "CCOc1ccc(/C=C/c2nc(C#N)c(NC(C)CC)o2)cc1", "note": "(stereo not drawn)", "activity change, negative = inhibition": "inactive: -11.1%"}
{"smiles": "Cc1cc2nc(-c3ccc(OCc4ccc(F)cc4)cc3)cc(C(F)(F)F)n2n1", "activity change, negative = inhibition": "inactive: -3.58%"}
{"smiles": "Cc1ccc(C)c(Cn2c(=O)n(Cc3ccc4c(c3)OCO4)c(=O)c3oc4ccccc4c32)c1", "activity change, negative = inhibition": "inactive: -5.83%"}
